The whole screen tested about 320,000 compounds, of which about 9,100 (2.8%) were called active. Inconclusive results, whose numbers are uncertain, are shown with a selection of clear calls. Calls come from the whole dose curve; as a rule, active = well fitted activation curve with a large enough effect; inconclusive = small, poorly fitted or top-dose-only effect; inactive = no such curve, though single readings can be large or run the other way. No potency is given beside an inconclusive call; the fits are too rough.
Assay: qHTS Assay for Rab9 Promoter Activators; note: nearly all actives have a fitted effect of over 60% in size; for activation, negative = inhibition: % of control where 0% means no effect
Details: Huh7 Rab9 promoter-luciferase reporter, luminescence, 24 h; series mostly up to 9.22 µM; activation, negative = inhibition: at the top concentration
Method in brief: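 Measured in stably transfected Huh7 cells bearing a Rab9 promoter–luciferase construct: 24 h compound treatment at 37 °C, followed by luminescence detection.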
Potency is the fitted concentration of half-maximal effect; tags give direction and shape of the fitted curve.

Row | SMILES | Potency | activation, negative = inhibition
1 | O=C(CC1CCCCC1)NCc1ccccc1 | inconclusive [activator, partial curve] | –
2 | C/C(=N\Nc1cc(Cl)nc(C)n1)c1ccccc1 | inconclusive [activator, single point] | –
3 | O=[N+]([O-])c1ccc(-c2nc(-c3ccncc3)no2)cc1 | inconclusive [activator, partial curve] | –
4 | Cc1nc(C)c(-c2csc(Nc3ccc(F)cc3)n2)s1 | inconclusive [activator, single point] | –
5 | Cc1cccn2cc(-c3ccc(F)cc3)nc12 | active: 1.78 µM | –
6 | Cc1cccc(/C=N/Nc2ccc3ccccc3n2)c1 | inconclusive [activator, full curve] | –
7 | N#Cc1ccccc1NC(=O)c1ccc2c(c1)OCCO2 | inconclusive [activator, partial curve] | –
8 | Cc1ccc(C(=O)Nc2ccc(S(=O)(=O)N3CCOCC3)cc2)cc1C | – | inactive: 0.284%
9 | CC(=O)NC1=C(Nc2ccc(N(C)C)cc2)C(=O)c2ccccc2C1=O | inconclusive [activator, partial curve] | –
10 | COc1ccc(C(=O)C(OC(=O)c2ccccc2)c2ccccc2)cc1 (stereo not drawn) | inconclusive [activator, single point] | –
11 | N#C/C(=C\c1cn(-c2ccccc2)nc1-c1cc2ccccc2o1)c1nc2ccccc2[nH]1 | inconclusive [activator, single point] | –
12 | CC(C)n1cnc2cc(NCc3ccccc3O)ccc21 | inconclusive [activator, single point] | –
13 | O=C(Nc1ccc(F)c(F)c1)c1ccc2c(c1)OCO2 | inconclusive [activator, partial curve] | –
14 | COc1ccc(/C=C/C(=O)c2ccc(NC(=O)c3cccs3)cc2)cc1OC | inconclusive [activator, single point] | –
15 | c1cnc(SCCCOc2ccc3ccccc3c2)nc1 | inconclusive [activator, single point] | –
16 | COc1cc(NC(=O)c2ccccc2Cl)c(OC)cc1NC(=O)CN1CCCCC1 | – | inactive: -0.92%
17 | COCCNC(=O)/C(C#N)=C/c1cc(C)n(-c2ccc(C)cc2)c1C | active: 1.58 µM | –
18 | O=C(c1ccccc1)n1ccc(-c2cnc(-c3ccccc3)s2)n1 | active: 1.58 µM | –
19 | CC1CCCCN1C(=S)NCCc1ccccc1 (stereo not drawn) | inconclusive [activator, partial curve] | –
20 | CC1CCN(C(=O)COC(=O)c2ccccc2NC(=O)c2ccco2)CC1 | inconclusive [activator, single point] | –
21 | CN(C)C(=O)c1cc(-c2ccccc2)no1 | inconclusive [activator, single point] | –
22 | Cc1c(Cl)cccc1NS(=O)(=O)c1c(C(=O)N2CCOCC2)c(C)n(C)c1C | – | inactive: -1.25%
23 | Cn1nnc2cc(C(=O)Nc3ccccc3)ccc21 | inconclusive [activator, single point] | –
24 | Oc1[nH]c2ccccc2c1N=Nc1ccc(C(F)(F)F)cn1 | inconclusive [activator, single point] | –

Row | SMILES | Potency | activation, negative = inhibition
25 | Cc1ccccc1OCC(=O)Nc1ccncc1 | – | inactive: -4.32%
26 | COC(=O)c1cccc(NC(=O)/C=C/c2ccc3c(c2)OCO3)c1 | active: 2.51 µM | –
27 | COc1cccc(CNC(=O)CCCNC(=O)c2ccc(Cl)cc2)c1 | – | inactive: 18.1%
28 | CCOC(=O)c1cccc(NC(=O)c2ccccc2C)c1 | inconclusive [activator, full curve] | –
29 | CCCCCOc1ccc(CN2CCOCC2)cc1Cl | active: 3.55 µM | –
30 | C/C(=N/Nc1ccc(C(=O)O)cc1)c1ccc(O)c(O)c1O | inconclusive [activator, partial curve] | –
31 | O=C(Nc1ccc(NC(=O)C2CC2)cc1)c1ccco1 | active: 1.78 µM | –
32 | CCN(CC)CCNC(=S)Nc1ccc(F)cc1 | – | inactive: -0.219%
33 | COc1ccc(NC(=O)CCOc2ccccc2)cc1 | active: 4.47 µM | –
34 | N#Cc1c(NC(=O)c2cnn3cccnc23)sc2c1CCCC2 | inconclusive [activator, partial curve] | –
35 | O=C(NCC1CCCO1)C(c1cccnc1)N(C(=O)Cc1cccs1)c1ccccc1 (stereo not drawn) | inconclusive [activator, partial curve] | –
36 | CC(/C=C/C(=O)c1ccc(C)cc1)=C\c1ccccc1 | inconclusive [activator, single point] | –
37 | Nn1c(SCC(=O)NC(=O)Nc2ccc3c(c2)OCCO3)nnc1C1CC1 | inconclusive [activator, single point] | –
38 | CC1=C(CC(=O)c2ccc(Cl)cc2)C(=O)c2ccccc2C1=O | inconclusive [activator, partial curve] | –
39 | CCN(CC)c1ccc(/C=N/NC(=O)c2ccoc2C)cc1 | inconclusive [activator, full curve, poor fit] | –
40 | CCOC(=O)C1CCN(S(=O)(=O)c2cc(C(=O)N3CCCCC3)ccc2OC)CC1 | – | inactive: 3.54%
41 | Cc1cc(-c2ccc(C(=O)O)s2)cnc1N | inconclusive [activator, partial curve] | –
42 | O=C(CSc1nnc(-c2cccnc2)o1)Nc1nccs1 | inconclusive [activator, partial curve] | –
43 | Cc1ccc(C(=O)Nc2sc3c(c2C(=O)O)CCCC3)o1 | inconclusive [activator, partial curve] | –
44 | O=C(CSc1nc2ccccc2c(=O)n1NC(=O)c1ccccc1)c1ccc(Cl)cc1 | inconclusive [activator, partial curve] | –
45 | COc1ccc2oc(C(=O)Nc3nccs3)c(C)c2c1 | active: 1.12 µM | –
46 | CCSc1nsc(NC(=O)Nc2ccc(F)cc2F)n1 | inconclusive [activator, partial curve] | –
47 | Cc1cc(C)nc(Nc2n[nH]c(-c3ccccc3N)n2)n1 | active: 0.501 µM | –
48 | c1ccc(CCc2nc(-c3cccnc3)no2)cc1 | inconclusive [activator, partial curve] | –

Source: PubChem BioAssay AID485297 (National Center for Advancing Translational Sciences (NCATS), 2010)
